# Data taken from the supplement of paper PMC8728848.
# The other results are listed elsewhere or left out.
# B1: Siglec-E (Mus musculus), Q91Y57 (protein)
# chain: MLLLLLLLLLWGIKGVEGQNPQEVFTLNVERKVVVQEGLCVLVPCNFSYLKKRLTDWTDSDPVHGFWYREGTDRRKDSIVATNNPIRKAVKETRNRFFLLGDPWRNDCSLNIREIRKKDAGLYFFRLERGKTKYNYMWDKMTLVVTALTNTPQILLPETLEAGHPSNLTCSVPWDCGWTAPPIFSWTGTSVSFLSTNTTGSSVLTITPQPQDHGTNLTCQVTLPGTNVSTRMTTRLNVSYAPKNLTVTIYQGADSVSTILKNGSSLPISEGQSLRLICSTDSYPPANLSWSWDNLTLCPSKLSKPGLLELFPVHLKHGGVYTCQAQHALGSQHISLSLSPQSSATLSEMMMGTFVGSGVTALLFLSVCILLLAVRSYRRKPARPAVVAPHPDALKVSVSQNPLVESQADDSSEPLPSILEAAPSSTEEEIHYATLSFHEMKPMNLWGQQDTTTEYSEIKFPQRTAWP
# Key:
# Assay in all cases: glycan array binding signal (z-score within array); higher = stronger binding
# Conditions in all cases: glycan notation: IUPAC condensed, linker removed
# Gal(a1-6)Glc = molecular target: Gal(a1-6)Glc
# Outline: (§1)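 The binding signal is a Z-score computed within each array. Data were drawn from 3228 arrays in the Consortium for Functional Glycomics database, restricted to those with a known protein sequence. Scores were averaged over arrays of the same protein sequence at different concentrations or buffers, and over linkers, and negative values can be taken as non-binding.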
# Gal(b1-2)Gal = molecular target: Gal(b1-2)Gal
# Outline: as §1
# Gal(b1-3)Gal = molecular target: Gal(b1-3)Gal
# Outline: as §1
# Gal(b1-3)Gal(b1-4)GlcNAc = molecular target: Gal(b1-3)Gal(b1-4)GlcNAc
# Outline: as §1
# Gal(b1-3)GalNAc = molecular target: Gal(b1-3)GalNAc
# Outline: as §1
# [1] = molecular target: Gal(b1-3)GalNAc(a1-3)[Fuc(a1-2)]Gal(b1-4)Glc
# Outline: as §1
# [2] = molecular target: Gal(b1-3)GalNAc(a1-3)[Fuc(a1-2)]Gal(b1-4)GlcNAc
# Outline: as §1
# Gal(b1-3)GalNAc(b1-3)Gal = molecular target: Gal(b1-3)GalNAc(b1-3)Gal
# Outline: as §1
# [3] = molecular target: Gal(b1-3)GalNAc(b1-3)Gal(a1-4)Gal(b1-4)Glc
# Outline: as §1
# [4] = molecular target: Gal(b1-3)GalNAc(b1-4)Gal(b1-4)Glc
# Outline: as §1
# [5] = molecular target: Gal(b1-3)GalNAc(b1-4)[Neu5Ac(a2-3)]Gal(b1-4)Glc
# Outline: as §1
# Gal(b1-3)GlcNAc = molecular target: Gal(b1-3)GlcNAc
# Outline: as §1
# [6] = molecular target: Gal(b1-3)GlcNAc(a1-3)Gal(b1-4)GlcNAc
# Outline: as §1
# [7] = molecular target: Gal(b1-3)GlcNAc(a1-6)Gal(b1-4)GlcNAc
# Outline: as §1
# Gal(b1-3)GlcNAc(b1-2)Man = molecular target: Gal(b1-3)GlcNAc(b1-2)Man
# Outline: as §1
# [8] = molecular target: Gal(b1-3)GlcNAc(b1-2)Man(a1-3)[Gal(b1-3)GlcNAc(b1-2)Man(a1-6)]Man(b1-4)GlcNAc(b1-4)GlcNAc
# Outline: as §1
# [9] = molecular target: Gal(b1-3)GlcNAc(b1-2)Man(a1-3)[Gal(b1-3)GlcNAc(b1-2)Man(a1-6)]Man(b1-4)GlcNAc(b1-4)[Fuc(a1-6)]GlcNAc
# Outline: as §1
# [10] = molecular target: Gal(b1-3)GlcNAc(b1-2)Man(a1-3)[GlcNAc(b1-4)][Gal(b1-3)GlcNAc(b1-2)Man(a1-6)]Man(b1-4)GlcNAc(b1-4)GlcNAc
# Outline: as §1
# [11] = molecular target: Gal(b1-3)GlcNAc(b1-2)[Gal(b1-3)GlcNAc(b1-6)]Man(a1-6)[Gal(b1-3)GlcNAc(b1-2)Man(a1-3)]Man(b1-4)GlcNAc(b1-4)GlcNAc
# Outline: as §1
# [12] = molecular target: Gal(b1-3)GlcNAc(b1-3)Gal(b1-3)GlcNAc
# Outline: as §1
# [13] = molecular target: Gal(b1-3)GlcNAc(b1-3)Gal(b1-4)Glc
# Outline: as §1
# [14] = molecular target: Gal(b1-3)GlcNAc(b1-3)Gal(b1-4)GlcNAc
# Outline: as §1
# [15] = molecular target: Gal(b1-3)GlcNAc(b1-3)Gal(b1-4)GlcNAc(b1-2)Man(a1-3)[Gal(b1-3)GlcNAc(b1-3)Gal(b1-4)GlcNAc(b1-2)Man(a1-6)]Man(b1-4)GlcNAc(b1-4)GlcNAc
# Outline: as §1
# [16] = molecular target: Gal(b1-3)GlcNAc(b1-3)Gal(b1-4)GlcNAc(b1-2)[Gal(b1-3)GlcNAc(b1-3)Gal(b1-4)GlcNAc(b1-6)]Man(a1-6)[Gal(b1-3)GlcNAc(b1-3)Gal(b1-4)GlcNAc(b1-2)Man(a1-3)]Man(b1-4)GlcNAc(b1-4)[Fuc(a1-6)]GlcNAc
# Outline: as §1
# [17] = molecular target: Gal(b1-3)GlcNAc(b1-3)Gal(b1-4)GlcNAc(b1-3)Gal(b1-4)GlcNAc(b1-2)[Gal(b1-3)GlcNAc(b1-3)Gal(b1-4)GlcNAc(b1-3)Gal(b1-4)GlcNAc(b1-6)]Man(a1-6)[Gal(b1-3)GlcNAc(b1-3)Gal(b1-4)GlcNAc(b1-3)Gal(b1-4)GlcNAc(b1-2)Man(a1-3)]Man(b1-4)GlcNAc(b1-4)[Fuc(a1-6)]GlcNAc
# Outline: as §1
# [18] = molecular target: Gal(b1-3)GlcNAc(b1-3)Gal(b1-4)GlcNAc(b1-6)[Gal(b1-3)GlcNAc(b1-3)]Gal(b1-4)Glc
# Outline: as §1
# [19] = molecular target: Gal(b1-3)GlcNAc(b1-3)Gal(b1-4)[Fuc(a1-3)]GlcNAc
# Outline: as §1
# [20] = molecular target: Gal(b1-3)GlcNAc(b1-3)Gal(b1-4)[Fuc(a1-3)]GlcNAc(b1-6)[Gal(b1-3)GlcNAc(b1-3)]Gal(b1-4)Glc
# Outline: as §1
# [21] = molecular target: Gal(b1-3)GlcNAc(b1-3)GalNAc
# Outline: as §1
# [22] = molecular target: Gal(b1-3)GlcNAc(b1-6)Gal(b1-4)GlcNAc
# Outline: as §1
# [23] = molecular target: Gal(b1-3)GlcNAc(b1-6)GalNAc
# Outline: as §1
# [24] = molecular target: Gal(b1-3)GlcNAc(b1-6)[Gal(b1-3)]GalNAc
# Outline: as §1
# Gal(b1-3)GlcNAc6S = molecular target: Gal(b1-3)GlcNAc6S
# Outline: as §1
# [25] = molecular target: Gal(b1-3)[Fuc(a1-4)]GlcNAc
# Outline: as §1
# [26] = molecular target: Gal(b1-3)[Fuc(a1-4)]GlcNAc(b1-2)Man
# Outline: as §1
# [27] = molecular target: Gal(b1-3)[Fuc(a1-4)]GlcNAc(b1-2)Man(a1-3)[Gal(b1-3)[Fuc(a1-4)]GlcNAc(b1-2)Man(a1-6)]Man(b1-4)GlcNAc(b1-4)[Fuc(a1-6)]GlcNAc
# Outline: as §1
# [28] = molecular target: Gal(b1-3)[Fuc(a1-4)]GlcNAc(b1-3)Gal(b1-3)[Fuc(a1-4)]GlcNAc
# Outline: as §1
binder,measurement,setting,value
B1,glycan array binding signal (z-score),Gal(a1-6)Glc,0.863
same,glycan array binding signal (z-score),Gal(b1-2)Gal,0.795
same,glycan array binding signal (z-score),Gal(b1-3)Gal,-0.177
same,glycan array binding signal (z-score),Gal(b1-3)Gal(b1-4)GlcNAc,-0.169
same,glycan array binding signal (z-score),Gal(b1-3)GalNAc,-0.377
same,glycan array binding signal (z-score),[1],-0.496
same,glycan array binding signal (z-score),[2],-0.427
same,glycan array binding signal (z-score),Gal(b1-3)GalNAc(b1-3)Gal,-0.219
same,glycan array binding signal (z-score),[3],-0.338
same,glycan array binding signal (z-score),[4],0.629
same,glycan array binding signal (z-score),[5],-0.52
same,glycan array binding signal (z-score),Gal(b1-3)GlcNAc,-0.331
same,glycan array binding signal (z-score),[6],-0.363
same,glycan array binding signal (z-score),[7],0.026
same,glycan array binding signal (z-score),Gal(b1-3)GlcNAc(b1-2)Man,-0.592
same,glycan array binding signal (z-score),[8],0.733
same,glycan array binding signal (z-score),[9],0.041
same,glycan array binding signal (z-score),[10],1.56
same,glycan array binding signal (z-score),[11],1.66
same,glycan array binding signal (z-score),[12],-0.216
same,glycan array binding signal (z-score),[13],-0.441
same,glycan array binding signal (z-score),[14],-0.495
same,glycan array binding signal (z-score),[15],-0.459
same,glycan array binding signal (z-score),[16],-0.136
same,glycan array binding signal (z-score),[17],-0.043
same,glycan array binding signal (z-score),[18],-0.172
same,glycan array binding signal (z-score),[19],-0.397
same,glycan array binding signal (z-score),[20],-0.519
same,glycan array binding signal (z-score),[21],0.074
same,glycan array binding signal (z-score),[22],-0.431
same,glycan array binding signal (z-score),[23],-0.473
same,glycan array binding signal (z-score),[24],-0.267
same,glycan array binding signal (z-score),Gal(b1-3)GlcNAc6S,-0.49
same,glycan array binding signal (z-score),[25],-0.47
same,glycan array binding signal (z-score),[26],2.81
same,glycan array binding signal (z-score),[27],0.832
same,glycan array binding signal (z-score),[28],-0.345
